Consider 55 molecules from ChEMBL document CHEMBL4888484, “Replenishing the malaria drug discovery pipeline: Screening and hit evaluation of the MMV Hit Generation Library 1 (HGL1) against asexual blood stage Plasmodium falciparum ,using a nano luciferase reporter read-out” (2022).

Hit rate of the full screen: of about 150,000 compounds, about 540 (0.36%) showed an effect of 50% or more. This is one part of the list.

The test system of the assay is Plasmodium falciparum. As to the kind of experiment: Primary screen in NF54 nanoGlo assay, in single point, at 2uM, 72h; a lower Z score goes with more inhibition. The class given is functional, Erythrocyte. The settings on record: timepoint 72 hour.
The % Inhibition is the change of the read-out against control, counted positive when it falls. In the case of `Cc1nc(CC(=O)Nc2ccc(F)c(F)c2)sc1C(=O)NCc1ccccc1`, the “% Inhibition” value was -12% and the Z score amounted to 1.55.

For `C=CCC[C@@H](CN(C)Cc1cccnc1)Oc1ccc(C#N)nc1`, the “% Inhibition” value is -18% and the Z score came to 1.82.

For the molecule `O=C(CS(=O)(=O)Cc1cc(Cl)c2c(c1)OCCCO2)N1CCCCCCC1`, the “% Inhibition” value is on record as -18% and the Z score was 1.6.

As to `OC1CCC(Nc2cncc(-n3cccn3)n2)CC1` (stereo not given), the “% Inhibition” value came to 30% and the Z score is listed as 0.04.

As for `Cc1ccc(-c2nc(-c3cnccn3)no2)s1`, the “% Inhibition” value is reported as -5% and the Z score is listed as 0.87.

As for `O=C(Nc1ccccc1-n1ccnc1)c1cnccn1`, the “% Inhibition” value came out at 36% and the Z score was -4.8.

For the molecule `CC(C)Oc1ccc(CN2CCc3nc(N4CCCC4)ncc3C2)cc1`, the “% Inhibition” value is -5% and the Z score is listed as 0.74.

Take `Cc1cc(C(=O)NCc2ccnc(-c3cccnc3)c2)c(C)o1`: the “% Inhibition” value came out at 2% and the Z score was -0.27.

In the case of `Cc1cnc(CN2CCC(C)[S+]([O-])CC2)nc1` (stereo not given), the “% Inhibition” value is -9% and the Z score turned out to be 1.01.

On to `CCCc1cc(CN(C)C(=O)C[C@]2(c3cccc(C(F)(F)F)c3)CC(=O)N(CC)C2=O)n[nH]1`, for which the “% Inhibition” value is listed as 14% and the Z score is -1.8.

On to `COc1ccc(-c2oncc2-c2cc(OC)c3c(c2OC)OCO3)cc1`, for which the “% Inhibition” value is 13% and the Z score was -1.64.

Consider `Cc1ncn(-c2ccc(NC(=O)C3(C)COC3)cc2)c1C`, for which the “% Inhibition” value is listed as -8% and the Z score was 1.16.

`Cc1cc(=O)c(C(=O)NCc2cccnc2)c(CC2CCCC2)n1CCCN1CCCC1=O`: the “% Inhibition” value was determined as 9% and the Z score is on record as -1.26.

For the molecule `Cc1cc(Br)cc(Cl)c1NS(C)(=O)=O`, the “% Inhibition” value was -11% and the Z score was 1.55.

With `CC1(C)CC2(CO1)CC(NC(=O)c1cc3c(cn1)OCCC3)C2` (stereo not given), the “% Inhibition” value is on record as -7% and the Z score is listed as 1.02.

Turning to `N#Cc1ccc(OC(=O)c2cc(-c3ccccc3)on2)cc1`, the “% Inhibition” value amounted to 16% and the Z score is -1.81.

As for `Cc1cc([C@@H]2CCCN2S(C)(=O)=O)on1`, the “% Inhibition” value is recorded as -6% and the Z score came to 0.77.

As to `OCCc1cnc2c(-c3nc([C@H]4CCOC4)n[nH]3)cnn2c1`, the “% Inhibition” value is -3% and the Z score is on record as 0.57.

As to `Cc1ccc(/N=C(\N)C(Cl)(Cl)Cl)c(C)c1`, the “% Inhibition” value is 37% and the Z score was -4.76.

For the molecule `Cc1nc2c(C(=O)N3CC[C@@]4(C3)NC(=O)N(C)C4=O)cccc2o1`, the “% Inhibition” value was found to be 1% and the Z score is reported as -0.24.

Take `C[C@H]1Cc2cccc3c(=O)c(C(=O)Nc4ccc(Oc5ccccc5)cc4)cn1c23`: the “% Inhibition” value turned out to be 9% and the Z score is reported as -1.06.

`COc1cc(NC(=O)CC[C@H]2CCCN(C(=O)c3ocnc3C)C2)cc(OC)c1`: the “% Inhibition” value is -14% and the Z score was found to be 1.96.

As for `Cc1nc(C)c(C)c(N2CCC(N3CCOCC3)CC2)n1`, the “% Inhibition” value was -13% and the Z score came to 1.8.

`COCCC(=O)NCCc1ncc(C)n1C1CCC1`: the “% Inhibition” value is recorded as -5% and the Z score came out at 0.76.

Take `CC(C)OC[C@H](N)C(=O)Nc1cccnc1`: the “% Inhibition” value is reported as -4% and the Z score is reported as 0.41.

Regarding `CC(C)(C)OC(=O)N1CCN[C@H](c2ccccc2)C1`, the “% Inhibition” value is -8% and the Z score was found to be 1.53.

Take `O[C@H]1CCN(Cc2nc3cc(F)ccc3o2)C12CCCC2`: the “% Inhibition” value amounted to 7% and the Z score was -1.08.

`Cc1ccc2c(C(=O)N3CCC(C)(C)C3)cc(-c3cncnc3)nc2c1C`: the “% Inhibition” value is -9% and the Z score is on record as 1.63.

Turning to `Cc1nc(-c2ccccc2C(F)(F)F)c(N)c(N2CCOCC2)n1`, the “% Inhibition” value is 3% and the Z score was -0.38.

In the case of `COCCC1(NC(=O)c2ccc(C#N)cc2)CCN(CC2CC2)CC1`, the “% Inhibition” value is given as -1% and the Z score was found to be 0.13.

`CC1(C)COC[C@@H]1NCc1ccncc1F`: the “% Inhibition” value is -6% and the Z score is 0.84.

Take `Cc1[nH][nH]c(=O)c1CC(=O)N1CCOC[C@@H]1CC(=O)Nc1cccc(F)c1`: the “% Inhibition” value is given as -10% and the Z score is on record as 1.32.

With `C#CCN1CCC[C@H]1C(=O)Nc1nc(-c2cccs2)c(-c2cccs2)s1`, the “% Inhibition” value is reported as -8% and the Z score came to 1.16.

For the molecule `CN1CC(NC(=O)[C@@H]2COCC[C@@H]2c2ccccc2)CC1=O` (stereo not given in full), the “% Inhibition” value is on record as 7% and the Z score is on record as -1.1.

`Cc1cc(S(=O)(=O)N2CCN(c3nc[nH]n3)CC2)c(C)o1`: the “% Inhibition” value is -10% and the Z score stood at 1.55.

Consider `Cc1ccc(C(=O)N2CCn3c(nnc3C3CCN(S(=O)(=O)C(C)C)CC3)C2)cc1F`, for which the “% Inhibition” value is recorded as -7% and the Z score turned out to be 1.17.

Take `CCn1nnc2c(N3CC(C(=O)Nc4ccc5c(c4)OCCO5)C3)ncnc21`: the “% Inhibition” value is given as -14% and the Z score is 2.11.

As for `Cc1nc(C)c(CNC(=O)NCc2cccc(-n3cncn3)c2)s1`, the “% Inhibition” value was -10% and the Z score came to 1.14.

For the molecule `O=C(C1CCC1)N(CCN1CCOCC1)CC(=O)N1N=C(c2ccc(F)cc2)C[C@H]1c1ccccc1Cl`, the “% Inhibition” value is -12% and the Z score stood at 1.18.

In the case of `CCN1C[C@@H](c2ccccc2)CC2(CCN(c3cc(C)nc(NC)n3)CC2)C1`, the “% Inhibition” value is reported as 1% and the Z score was -0.27.

Regarding `NC(=O)Cc1nc(CCN2CCCCCC2=O)n(CC(F)(F)F)n1`, the “% Inhibition” value was -11% and the Z score is 1.11.

`C[C@H](NC(=O)Nc1ccc2c(c1)OCO2)c1ccncc1`: the “% Inhibition” value is on record as -11% and the Z score was found to be 2.22.

With `CN1CCC[C@H]1C(=O)NCc1cc(COc2ccccc2)cs1`, the “% Inhibition” value is -5% and the Z score came out at 0.83.

For `Cc1c(Cl)c(CN2CCOCC23CC3)nn1C`, the “% Inhibition” value was -8% and the Z score is recorded as 1.47.

Regarding `Cc1noc(C)c1CN1CCC[C@H]1c1nc(-c2ccccc2)n[nH]1`, the “% Inhibition” value is -13% and the Z score was determined as 2.04.

For `Cn1cc(-c2ncnc3[nH]cnc23)cn1`, the “% Inhibition” value worked out at 7% and the Z score is listed as -0.63.

With `Cc1noc(C)c1S(=O)(=O)NC[C@@H](c1cccs1)N(C)C`, the “% Inhibition” value is -8% and the Z score is 1.15.

With `COc1ccc(S(=O)(=O)N[C@@H](CC(=O)NC2CCCC2)c2ccco2)cc1`, the “% Inhibition” value worked out at 15% and the Z score is recorded as -1.75.

Take `Cc1ccc(CN(C(=O)c2ccc(C(=O)O)cc2F)C(C)C)s1`: the “% Inhibition” value is -4% and the Z score was 0.59.

As for `N#Cc1cccc(CN[C@@H]2CO[C@H](CNC(=O)c3ccncc3)[C@H]2O)c1`, the “% Inhibition” value was -8% and the Z score turned out to be 1.05.

For the molecule `CCCC(=O)NCc1ccc(CNC(=O)CCC)cc1`, the “% Inhibition” value amounted to 5% and the Z score is -0.57.

For `CCc1csc(-c2ccc(S(=O)(=O)Nc3cc(F)cc(F)c3)s2)n1`, the “% Inhibition” value is given as -10% and the Z score amounted to 1.97.

On to `Cc1[nH]c(CN2CCC[C@H](c3ncc[nH]3)C2)cc1C#N`, for which the “% Inhibition” value is -1% and the Z score stood at 0.23.

Regarding `C[C@H]1Cc2cc(C(=O)NCc3cnc4c(c3)CCC4)ccc2O1`, the “% Inhibition” value is recorded as -17% and the Z score came out at 2.98.

As to `O=C(NC1CCCC1)c1ccc(N[C@H]2CCCc3cn(C4CCCC4)nc32)nn1`, the “% Inhibition” value is 2% and the Z score is -0.22.
